Here are results for 14 compounds from article PMC8436213 (Journal of Medicinal Chemistry, 2021).

Marks after values point to notes of the source that are not given here.

For test [1], the system named is Wistar rats. Particulars: rat, in vivo, ip.
The test system of test [2] is Wistar rats. To be noted: rat, in vivo, ip. The source holds these as a separate data set.
The target of test [3] is serotonin and dopamine receptors (5-HT2A, 5-HT6, 5-HT7, D2). To be noted: cited from earlier work.
The next test addresses human M1 receptor (Homo sapiens, UniProt P11229). Nature of the test: biochemical. To be noted: read-out: M1R % inhibition of control specific binding.
The target of another test is human H1 receptor (Homo sapiens, UniProt P35367). Nature of the test: biochemical. To be noted: read-out: H1R % inhibition of control specific binding.
The subject of test [4] is Wistar rats. Particulars: rat, in vivo.
The test system of test [5] is Wistar rats. Particulars: rat, in vivo; for FST MED: ip.
Test [6] concerns the target human serotonin 5-HT7 receptor (Homo sapiens, UniProt P34969). Nature of the test: cell-based.
In the next test the test system is mice. Particulars: mouse, in vivo; cited from earlier work.

For `O=C1CC2(CCCC2)CC(=O)N1CCCCN1CCN(c2ncccn2)CC1` [Buspirone, reference compound], the “EPM MED” value with Wistar rats [1] is on record as 1.25 mg/kg. Further, the “Vogel test MED” value in the test with Wistar rats [2] is reported as 1.25 mg/kg.
Take `O=S(=O)(NC1CCN(CCCc2noc3cc(F)ccc23)C1)c1ccc(F)cc1` (centres unmarked) [Compound 1]: the “affinity for the defined biological targets (pKi)” value in test [3] was over 7.
Usually inhibition stands for the drop in the measured response relative to a control, in per cent. For `O=S(=O)(CC1CCN(CCCc2noc3cc(F)ccc23)C1)c1ccc2ccccc2c1` (centres unmarked) [Compound 2, 6-Fluoro-3-(3-(3-(((naphthalene-2-yl-phenyl)sulfonyl)methyl)pyrrolidin-1-yl)propyl)benzo[d]isoxazole], the inhibition at 1 µM on human M1 receptor is -15%; at human H1 receptor, 39%.
Consider `Cc1ccc(S(=O)(=O)CC2CCN(CCCc3noc4cc(F)ccc34)C2)cc1C` (centres unmarked) [Compound 3, 6-Fluoro-3-(3-(3-(((3,4-dimethylphenyl)sulfonyl)methyl)-1-pyrrolidinyl)propyl)benzo[d]isoxazole], for which the results for the inhibition at 1 µM at human M1 receptor and at human H1 receptor were 5% and 58%, respectively.
The matching figures for `O=S(=O)(CC1CCN(CCCc2noc3cc(F)ccc23)C1)c1ccc(Cl)c(Cl)c1` (centres unmarked) [Compound 5, 6-Fluoro-3-(3-(3-(((3,4-dichlorophenyl)sulfonyl)methyl)-1-pyrrolidinyl)propyl)benzo[d]isoxazole]: 4% and 54%.
On to `O=S(=O)(CC1CCN(CCCc2noc3cc(F)ccc23)C1)c1ccc(C(F)(F)F)cc1` (centres unmarked) [Compound 7, 6-Fluoro-3-(3-(3-(((4-(trifluoromethyl)phenyl)sulfonyl)methyl)pyrrolidin-1-yl)propyl)benzo[d]isoxazole], for which the inhibition at 1 µM at human M1 receptor is -7%; at human H1 receptor, 29%. In addition, the “MK-801-induced hyperactivity, total distance traveled (in words)” value (“MK-801-induced hyperactivity … (in words)” below) with Wistar rats [4] is on record as “tended to decrease the total distance animals traveled”. The “efficacy in the FST (in words)” value in the test with Wistar rats [5] is reported as “did not show statistically significant efficacy”. In addition, the “efficacy in the Vogel conflict drinking test (in words)” value in the test with Wistar rats [2] is “did not show statistically significant efficacy”.
On to `O=S(=O)(CC1CCN(CCCc2noc3cc(F)ccc23)C1)c1cccc(Cl)c1` (centres unmarked) [Compound 11, 6-Fluoro-3-(3-(3-(((3-chlorophenyl)sulfonyl)methyl)-1-pyrrolidinyl)propyl)benzo[d]isoxazole], for which the inhibition at 1 µM at human M1 receptor was -5%; on human H1 receptor it was 24%. For the same compound, the “MK-801-induced hyperactivity … (in words)” value in the test with Wistar rats [4] was “tended to decrease the total distance animals traveled”. The “efficacy in the FST (in words)” value in the test with Wistar rats [5] is “pronounced antidepressant-like activity”. Also, in the test with Wistar rats [2], the “efficacy in the Vogel conflict drinking test (in words)” value is reported as “did not show statistically significant efficacy”.
Take `C[C@H]1C[C@H](NS(=O)(=O)c2csc3ccccc23)CN1CCCc1noc2cc(F)ccc12` [Compound 15, N-((3S,5S)-1-(3-(6-Fluorobenzo[d]isoxazol-3-yl)propyl)-5-methylpyrrolidin-3-yl)benzo[b]thiophene-3-sulfonamide]: the inhibition at 1 µM was 11% at human M1 receptor and 10% on human H1 receptor.
Consider `C[C@H]1C[C@H](NS(=O)(=O)c2cc3ccccc3s2)CN1CCCc1noc2cc(F)ccc12` [Compound 16, N-((3S,5S)-1-(3-(6-Fluorobenzo[d]isoxazol-3-yl)propyl)-5-methylpyrrolidin-3-yl)benzo[b]thiophene-2-sulfonamide], for which the inhibition at 1 µM was -1% at human M1 receptor and 2% on human H1 receptor. Further, in the test on Wistar rats [4], the “MK-801-induced hyperactivity … (in words)” value is “tended to decrease the total distance animals traveled”. In the test on Wistar rats [1], the “EPM total open arm time (in words)” value was “significantly and dose-dependently enhanced the total open arm time”. Moreover, the “efficacy in the FST (in words)” value with Wistar rats [5] is given as “did not show statistically significant efficacy”. Moreover, the “efficacy in the Vogel conflict drinking test (in words)” value with Wistar rats [2] is on record as “statistically significant anxiolytic effects”.
With `C[C@H]1C[C@H](NS(=O)(=O)c2cc3ccc(F)cc3s2)CN1CCCc1noc2cc(F)ccc12` [Compound 18, 6-Fluoro-N-((3S,5S)-1-(3-(6-fluorobenzo[d]isoxazol-3-yl)propyl)-5-methylpyrrolidin-3-yl)benzo[b]thiophene-2-sulfonamide], the inhibition at 1 µM stood at 7% on human M1 receptor and 19% at human H1 receptor.
Take `C[C@H]1C[C@H](NS(=O)(=O)c2ccc3ccccc3c2)CN1CCCc1noc2cc(F)ccc12` [Compound 21, N-((3S,5S)-1-(3-(6-Fluorobenzo[d]isoxazol-3-yl)propyl)-5-methylpyrrolidin-3-yl)naphthalene-2-sulfonamide]: the inhibition at 1 µM was -6% at human M1 receptor and 4% at human H1 receptor. Besides, the Kb in test [6] is 457 nM.
Consider `CN(C)CCCN1c2ccccc2CCc2ccccc21` [Imipramine, reference compound], for which the “FST MED” value with Wistar rats [5] came out at 10 mg/kg.
For the compound `CC(C)COc1ccc(CNC(=O)N(Cc2ccc(F)cc2)C2CCN(C)CC2)cc1` [Pimavanserin], the “MK-801-induced hyperactivity MED” value in the test on mice is recorded as 0.1 ^b mg/kg.
As for `CN(C)CCC[C@@]1(c2ccc(F)cc2)OCc2cc(C#N)ccc21` [S-citalopram, reference compound], the “FST MED” value with Wistar rats [5] was 20 mg/kg.
